PubChem BioAssay AID624417 (National Center for Advancing Translational Sciences (NCATS), 2012)
Out of some 410,000 compounds screened, about 6,400 (1.6%) were called active. Inconclusive means that the source gave no clear call. Such entries were picked first, then a sample of the others. Calls come from the whole dose curve; as a rule, active = well fitted inhibition curve with a large enough effect; inconclusive = small, poorly fitted or top-dose-only effect; inactive = no such curve, though single readings can be large or run the other way. Where the call is inconclusive, the potency comes from a doubtful curve fit.

biological target: Glucagon-like peptide 1 receptor (Homo sapiens) (UniProt P43220); experiment: qHTS of GLP-1 Receptor Inverse Agonists (Inhibition Mode); details: HEK293 GLP-1R CRE-luciferase, luminescence, 24 h, GLP-1R form is constitutively active; series mostly up to 38.3 µM; note: nearly all actives have a fitted effect of over 55% in size
Summary of the method: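 Stable HEK293 clone (constitutively active GLP-1R + cAMP-response luciferase); 200 cells/uL plated, 12 h pre-culture, compound 24 hr, 37 deg C/5% CO2; detection reagent 12 min RT; luminescence.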
Potency is the fitted concentration of half-maximal effect; tags give direction and shape of the fitted curve.

Sequence of UniProt P43220 (P43220 whole entry, looked up): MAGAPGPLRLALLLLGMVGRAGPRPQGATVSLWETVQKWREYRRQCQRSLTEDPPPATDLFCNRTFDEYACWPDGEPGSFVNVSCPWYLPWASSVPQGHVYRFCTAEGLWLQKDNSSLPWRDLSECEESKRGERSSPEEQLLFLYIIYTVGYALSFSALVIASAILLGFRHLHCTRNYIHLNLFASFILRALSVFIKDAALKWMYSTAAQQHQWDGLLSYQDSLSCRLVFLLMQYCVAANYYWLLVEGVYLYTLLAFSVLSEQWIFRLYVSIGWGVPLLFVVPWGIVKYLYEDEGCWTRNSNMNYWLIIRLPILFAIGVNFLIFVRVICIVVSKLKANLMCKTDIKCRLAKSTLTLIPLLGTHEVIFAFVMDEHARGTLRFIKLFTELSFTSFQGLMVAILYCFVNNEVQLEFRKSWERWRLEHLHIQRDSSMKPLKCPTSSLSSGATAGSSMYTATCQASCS

Potency, inconclusive:
CCCCN(CC)Cc1c(C)[nH]c2c(ccc3ccccc32)c1=O 11.2 µM [inhibitor, single point]
Cc1cc(C(=O)CSc2nnnn2-c2ccccc2)c(C)n1-c1ccc2c(c1)OCO2 7.94 µM [inhibitor, partial curve, poor fit]
Cn1c(=O)[nH]c(=O)c2c1nc(Br)n2Cc1ccccc1Cl 28.2 µM [inhibitor, single point]
COc1ccccc1N1CCN(C(CNS(=O)(=O)c2ccccc2)c2ccccc2)CC1 (configuration not stated) 11.2 µM [inhibitor, partial curve, poor fit]
CCN(CC)CCCn1c2c(c(SCC(=O)Nc3cccc(C(C)=O)c3)nc1=O)CCC2 28.2 µM [inhibitor, single point]
Cc1oc(-c2cccc(Cl)c2)nc1CN1CCCC(C(=O)N2CCN(c3ccc(F)cc3)CC2)C1 (configuration not stated) 8.91 µM [inhibitor, partial curve, poor fit]
Cc1ccc(NC(=O)Cn2ccsc2=N)cc1S(=O)(=O)N(C)C 31.6 µM [inhibitor, partial curve, poor fit]
O=C(Nc1ccc2nc3n(c(=O)c2c1)CCCCC3)c1ccccn1 28.2 µM [inhibitor, single point]
COc1ccccc1CNC(=O)C(C)Sc1ccc(C)cc1 (configuration not stated) 11.2 µM [inhibitor, partial curve, poor fit]
COCC(C)n1c(C)cc(C(=O)CSc2cc(C)c3ccccc3n2)c1C (configuration not stated) 10 µM [inhibitor, partial curve, poor fit]
Cc1nn(Cc2c(F)c(F)c(F)c(F)c2F)c(C)c1NC(=O)c1ccc(COc2ccc(F)cc2)o1 11.2 µM [inhibitor, single point]
O=[N+]([O-])c1cc(F)c2cccnc2c1O 11.2 µM [inhibitor, single point]
CCN(CC)CCN(C(=O)c1ccc2c(c1)OCCO2)c1nc2c(Cl)cccc2s1 28.2 µM [inhibitor, single point]
Cc1ccc(N2Cc3ccccc3OC(C)C2=O)cc1 (configuration not stated) 10 µM [inhibitor, partial curve]
CC(C)c1ccc(N(C(=O)c2snc(C(N)=O)c2N)C(C(=O)NCC2CCCO2)c2ccc(N(C)C)cc2)cc1 (configuration not stated) 8.91 µM [inhibitor, partial curve, poor fit]
CCC(C)c1ccc(NC(=O)C2CC3CCC2C3)cc1 (configuration not stated) 12.6 µM [inhibitor, partial curve, poor fit]
COc1ccccc1/C=C/C(=O)Nc1ccc2c(c1)OCCO2 10 µM [inhibitor, single point]
CN1CC2=Cc3ccccc3OC23Oc2ccccc2C=C3C1 28.2 µM [inhibitor, partial curve, poor fit]
CCCS(=O)(=O)N1CCCC(C(=O)N2CCC(Cc3ccccc3)CC2)C1 (configuration not stated) 7.94 µM [inhibitor, partial curve]
CC(C)c1nc2n(n1)C1(CCCCC1)[C@@H]1CCCC[C@@H]1N2 20 µM [inhibitor, single point]
COc1ccc(C2(c3ccc(O)cc3O)CC(c3ccccc3Cl)NC(=S)N2)cc1 (configuration not stated) 28.2 µM [inhibitor, single point]
CCCCCCCC(=O)NC(Nc1ccc(S(N)(=O)=O)cc1)C(Cl)(Cl)Cl (configuration not stated) 11.2 µM [inhibitor, partial curve, poor fit]
CCCCN(CC)S(=O)(=O)c1ccc(C(=O)Nc2nnc(CSC)o2)cc1 28.2 µM [inhibitor, single point]
Cc1cc(S(=O)(=O)N2CCN(c3ccccc3F)CC2)ccc1-n1cnnn1 28.2 µM [inhibitor, single point]
CCOC(=O)N1CCN(Cc2nc(-c3ccc(C)cc3)no2)CC1 28.2 µM [inhibitor, single point]
Cc1ccc(Cn2cnc3ccccc32)cc1C 10 µM [inhibitor, partial curve, poor fit]
CCCOc1ccc2ccccc2c1/C=C1\SC(=O)NC1=O 2.51 µM [inhibitor, partial curve, poor fit]
Cc1ccc(O)c(C(=O)c2cnc3c(c2)c(C)nn3-c2ccccc2)c1 22.4 µM [inhibitor, single point]
CN(CC(=O)Nc1ccc(Cl)cc1)C(=O)c1cccc(S(=O)(=O)NCc2ccccc2)c1 10 µM [inhibitor, partial curve, poor fit]
CCn1ncc(CN2CCC(Oc3ccc(C(=O)N4CCCC4)cc3)CC2)c1C 1 µM [inhibitor, full curve, poor fit]
Cc1ccc(NC(=O)Cn2nnc(-c3ccccc3NC(=O)c3cccs3)n2)cc1 1.12 µM [inhibitor, full curve, poor fit]
O=C(c1cncc(Br)c1)N1CCc2ccccc2C1 7.08 µM [inhibitor, partial curve]
CCc1ccccc1N(C)S(=O)(=O)c1ccc(-c2cc(C)no2)s1 0.501 µM [inhibitor, full curve, poor fit]
Fc1ccc(-n2c(-c3cccs3)nc3nc4ccccc4nc32)cc1 4.47 µM [inhibitor, full curve]
CCc1ccc(C(=O)CN2C(=O)NC3(CCc4ccccc43)C2=O)cc1 (configuration not stated) 10 µM [inhibitor, partial curve, poor fit]
c1ccc(Cc2nnc(N3CCCCC3)c3ccccc23)cc1 0.891 µM [inhibitor, partial curve, poor fit]
Cn1nc(C(F)(F)F)c(C(=O)Nc2ccc(C(F)(F)F)cc2)c1Cl 28.2 µM [inhibitor, single point]
O=C(c1ccc(N2CCN(C(=O)c3ccc(F)cc3F)CC2)cc1)c1cccc(F)c1 11.2 µM [inhibitor, partial curve, poor fit]
COc1ccc(/C=C2\C(=O)NCC(=O)N2Cc2ccccc2)cc1 20 µM [inhibitor, single point]
COc1ccc(-c2csc(NC3OC(=O)c4ccccc43)n2)cc1 (configuration not stated) 28.2 µM [inhibitor, partial curve, poor fit]
CCCCn1c(=O)c(C(C)=O)c(O)c2ccccc21 10 µM [inhibitor, single point]
CCN(CC)CCN(C(=O)c1ccc2c(c1)OCCO2)c1nc2cc3c(cc2s1)OCO3 28.2 µM [inhibitor, single point]
CCc1ccccc1N(C)S(=O)(=O)c1ccc2[nH]cc(C(=O)N3CCc4ccccc43)c(=O)c2c1 14.1 µM [inhibitor, partial curve, poor fit]
O=C1C2C3C=CC(C4CC34)C2C(=O)N1/N=C/c1c[nH]c2ccccc12 (configuration not stated) 28.2 µM [inhibitor, single point]
COc1cc(/C=C(\C#N)C(=O)Nc2ccc(SC(F)F)cc2)cc(OC)c1OC 28.2 µM [inhibitor, single point]
COc1ccccc1C(=O)N/C(=C\c1cn(C)c2ccccc12)C(=O)N1CCCC1 11.2 µM [inhibitor, partial curve, poor fit]
CC(C)c1noc(-c2ccccc2OCC(=O)Nc2ccccc2[N+](=O)[O-])n1 15.8 µM [inhibitor, single point]
COc1ccc(CNCc2cc(C)c(OC)cc2C)c(OC)c1 8.91 µM [inhibitor, partial curve, poor fit]
O=C(CN1C(=O)NC2(CCCC2)C1=O)N1CCN(S(=O)(=O)c2cc(Cl)ccc2Cl)CC1 7.94 µM [inhibitor, partial curve, poor fit]

Potency, active:
c1ccc2cc3c(NCCN4CCOCC4)ccnc3cc2c1 10 µM
CCN(CC)CCNC(=O)c1sc2ncn(CC(=O)Nc3ccc(C)c(Cl)c3)c(=O)c2c1C 11.2 µM

Potency, inactive:
CCOC(=O)c1cnc(-n2nc(C)cc2C)nc1Nc1cccc(C(=O)O)c1
O=C(CN(Cc1ccccc1)S(=O)(=O)c1ccc(Cl)cc1)NCC1CCCO1 (configuration not stated)
Cc1cc(C(=O)N2CCC2(C)C(=O)NCc2cccc3ccccc23)nn1C (configuration not stated)
CCC(NC(=O)Nc1cc(OC)ccc1OC)c1c(-n2cccc2)sc2c1CCN(CC)C2 (configuration not stated)
Cc1ccccc1NC(=O)CSc1nnc(-c2ccccn2)o1
COc1cccc(NC(=O)CN(C)C(=O)CCCc2nc3ccccc3c(=O)[nH]2)c1
Cc1nnc(NC(=O)CSc2nc(N)c(NC(=O)c3cccs3)c(=O)[nH]2)s1
CC(=O)Nc1ccc(NC(=O)CCn2c(=S)oc3ccccc32)cc1
O=C(NCc1ccc2c(c1)CCN2C(=O)c1ccc(F)cc1)c1ccco1
CC(C)(C)c1ccccc1NC(=O)CSc1nc(-c2cccs2)cc(C(F)(F)F)n1
CN(Cc1ccccc1F)c1cc2c(c3c1ccn3C)C1CCC2O1 (configuration not stated)
